In PubChem BioAssay AID686978 (National Center for Advancing Translational Sciences (NCATS), 2013):
Among all 420,000 compounds or so, about 64,000 (15%) were called active. Inconclusive means that the source gave no clear call. Such entries were picked first, then a sample of the others. Calls follow the shape of the dose curve; as a rule, active = well fitted inhibition curve with a large enough effect; inconclusive = small, poorly fitted or top-dose-only effect; inactive = flat fitted curve, though single readings scatter. No potency is given beside an inconclusive call; the fits are too rough.

Experiment: qHTS for Inhibitors of human tyrosyl-DNA phosphodiesterase 1 (TDP1): qHTS in cells in absence of CPT; also: nearly all actives have a fitted effect of over 55% in size
Conditions: DT40 Tdp1-/- hTDP1 cells, no CPT, ATP luminescence, 48 h; activity change, negative = growth inhibition: at 46.2 µM (top of the series) unless noted
Procedure, shortened: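 Seeded 400 DT40-hTDP1 cells/well (vehicle DMSO, no 20 nM CPT); pinned compounds; ≥48 hr at 37 °C; CellTiter-Glo luminescence as viability measure.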
% is scaled to controls: 0 for no effect and ±100 for the full control effect; potency is read from the fitted curve at half-maximal effect; tags tell the direction and shape of the fitted curve.

For `C/C(=N/NC(=O)c1ccc2c(c1)OCO2)c1ccc(NC(=O)C(F)(F)F)cc1`, which “activity change, negative = growth inhibition” value is on record?
The value was inactive: 0.314%.

With `CC1CCN(CC(=O)Nc2nccs2)CC1` as the compound, how does the “activity change, negative = growth inhibition” value read?
Its value is inactive: -8.17%.

For `C[C@@H]1[C@H](c2ccccc2)OCCS(=O)(=O)N1Cc1cccc(C(F)(F)F)c1`, which Potency is on record?
Its Potency is active: 17.8 µM.

With `CC(C)CC1Nc2ncnc(N3CCN(c4ccccn4)CC3)c2N(Cc2ccc(Cl)cc2)C1=O` (stereo not drawn) as the compound, how does the Potency read?
The Potency was active: 23.1 µM.

Which Potency does the source give for `CCOC(=O)c1ccc(N/C=C2/CCCC(C)C2=O)cc1` (stereo not drawn) here?
Its Potency is inconclusive [inhibitor, single point].

Which “activity change, negative = growth inhibition” value does the source give for `Cc1ccccc1-n1nc(C)c(N=O)c1N` here?
The value was inactive: 1.32%.

With `Cc1ccc(Nc2cc(=O)[nH]c(=O)[nH]2)cc1C` as the compound, how does the Potency read?
Its Potency is inconclusive [inhibitor, single point].

With `NC(=S)NNc1cc(Cl)cc(Cl)c1` as the compound, how does the Potency read?
The Potency was inconclusive [inhibitor, partial curve].

For `CCOc1ccc(S(=O)(=O)N2CCC(C(=O)N3CCN(Cc4ccccc4)CC3)CC2)cc1`, which Potency is on record?
The Potency was inconclusive [inhibitor, partial curve, poor fit].

Which Potency does the source give for `Oc1ccc(-c2nccc(-c3cccs3)n2)cc1` here?
The Potency was inconclusive [inhibitor, single point].

For `CC(=O)SC1CC(=O)C=C2CCC3C4CCC(=O)OC4(C)CCC3C21C` (stereo not drawn), which “activity change, negative = growth inhibition” value is on record?
The value was inactive: -10.9%.

For `O=S(=O)(c1ccccc1)N1N=C(c2cccs2)CC1c1ccc(Br)cc1` (stereo not drawn), which Potency is on record?
Its Potency is active: 14.6 µM.

With `CC(=C\c1ccccc1)/C=C1/SC(=S)N(CCCC(=O)O)C1=O` as the compound, how does the “activity change, negative = growth inhibition” value read?
Its value is inactive: 1.39%.

With `COc1cccc(C(=O)N2CC(=O)Nc3ccc(C)cc3C2c2ccc(F)cc2)c1OC` (stereo not drawn) as the compound, how does the Potency read?
Its Potency is inconclusive [inhibitor, single point].

With `Cc1c(Cl)cccc1-n1c(SCC(=O)NCc2ccccc2)nc2n[nH]c(C)c2c1=N` as the compound, how does the Potency read?
The Potency was active: 11.6 µM.

Which Potency does the source give for `CCCN(CCC)CCCNC(=O)c1cc2c(=O)n(CC)c3ccccc3c2s1` here?
Its Potency is inconclusive [inhibitor, single point].

Which “activity change, negative = growth inhibition” value does the source give for `N#CC1(C#N)C(c2ccccc2)OC23CCCCC2C1(C#N)C(=N)O3` (stereo not drawn) here?
Its value is inactive: -15.5%.

For `NC(Cc1ccc(F)cc1)c1csc(Nc2ccc(C(=O)NCCCO)cn2)n1` (stereo not drawn), which Potency is on record?
The Potency was inconclusive [inhibitor, single point].

With `O=C(NCCc1ccc(Cl)cc1)c1ccc2nccnc2c1` as the compound, how does the Potency read?
The Potency was inconclusive [inhibitor, partial curve].

For `O=C(NC1CCCCC1)NC1(C(=O)N2CCN3CCCC3C2)CCCCC1` (stereo not drawn), which “activity change, negative = growth inhibition” value is on record?
The value was inactive: 3.86%.

For `CC1=C(CC(=O)O)c2cc(F)ccc2/C1=C/c1ccc(S(C)=O)cc1` (stereo not drawn), which “activity change, negative = growth inhibition” value is on record?
Its value is inactive: -1.04%.

Which “activity change, negative = growth inhibition” value does the source give for `COc1ccc(NC(=O)N2CCc3ccccc3C2)cc1OC` here?
Its value is inactive: 6.31%.

For `CC1(C(=O)NS(=O)(=O)Cc2ccccc2C(F)(F)F)CCN1C(=O)Cc1ccccc1` (stereo not drawn), which “activity change, negative = growth inhibition” value is on record?
Its value is inactive: -9.49%.

Which Potency does the source give for `Nc1ccccc1C(=O)NC(=O)Nc1ccc(Oc2ncc(Br)cn2)c(Cl)c1` here?
The Potency was active: 0.0184 µM.

Which Potency does the source give for `CNc1snc(C)c1C(=O)OC(C)C(=O)NCc1ccccc1` (stereo not drawn) here?
Its Potency is inconclusive [inhibitor, single point].

Which Potency does the source give for `CCC(O)CNC(=O)c1cnn(-c2nccc(-c3cc(C)sc3C)n2)c1C1CC1` (stereo not drawn) here?
Its Potency is inconclusive [inhibitor, single point].

With `CCOC(=O)C1CCCN(C(=O)CN2C(=O)c3ccccc3S2(=O)=O)C1` (stereo not drawn) as the compound, how does the “activity change, negative = growth inhibition” value read?
Its value is inactive: 3.17%.

For `CCOC(=O)N1CCN(C(=O)c2ccc3nc(N4CCC(C)CC4)sc3c2)CC1`, which Potency is on record?
Its Potency is inconclusive [inhibitor, partial curve, poor fit].

With `CCOc1ccc(S(=O)(=O)NCCC(=O)Nc2cccc(C(=O)OC)c2)cc1` as the compound, how does the “activity change, negative = growth inhibition” value read?
The value was inactive: -21.7%.

Which Potency does the source give for `COc1cc(C(CCN2CCCCC2)c2c(OC)cc(OC)c3c(C)cc(=O)oc23)cc(OC)c1OC` (stereo not drawn) here?
The Potency was active: 10.3 µM.

Which “activity change, negative = growth inhibition” value does the source give for `CCCOc1ccc(CNC(=O)C(C)n2nc(C)n3c(cc4occc43)c2=O)cc1` (stereo not drawn) here?
The value was inactive: -29%.

For `COc1cc(-c2nc(C(F)(F)F)c(OC)o2)cc(OC)c1OC`, which Potency is on record?
The Potency was inconclusive [inhibitor, partial curve, poor fit].

Which activity change, negative = growth inhibition does the source give for `NC(N)=NC1=NC(=O)/C(=C/c2ccccc2-n2cccn2)S1` here?
Its activity change, negative = growth inhibition is inconclusive: -31.6% [inhibitor].

For `O=C(CSc1nnnn1C1CC2CCC1C2)Nc1ccnc2ccccc12` (stereo not drawn), which Potency is on record?
Its Potency is active: 0.164 µM.

For `CC/C(O)=C1\C(=O)CCCC1=NCCc1c(C)[nH]c2ccc(C)cc12`, which Potency is on record?
The Potency was inconclusive [inhibitor, partial curve].

With `Cc1ccccc1N(CC(=O)NC(C)(C)C)C(=O)CCC(=O)Nc1nccs1` as the compound, how does the “activity change, negative = growth inhibition” value read?
Its value is inactive: -5.22%.

For `Nc1ccccc1C#CC(=O)c1ccccc1`, which Potency is on record?
Its Potency is inconclusive [inhibitor, full curve, poor fit].

With `O=C(CCC(=O)Nc1ccccc1Cl)NNC(=O)Nc1cccc([N+](=O)[O-])c1` as the compound, how does the “activity change, negative = growth inhibition” value read?
Its value is inactive: -8.48%.

Which Potency does the source give for `COc1ccc(OC)c(CNC(=O)CCc2c(C)nc3c(c2C)c(=O)n(C)c(=O)n3C)c1` here?
Its Potency is inconclusive [inhibitor, single point].

Which “activity change, negative = growth inhibition” value does the source give for `Cc1ccc2oc(=O)c(-c3nc4ccc(C)cc4[nH]3)cc2c1` here?
The value was inactive: -29.4%.

For `COc1ccc(NC(=O)C[C@H]2C(=O)N(c3ccc(OC)cc3)C[C@@H]2CSC)cc1`, which Potency is on record?
The Potency was inconclusive [inhibitor, single point].

Which “activity change, negative = growth inhibition” value does the source give for `CC(=O)N1c2ccc(S(=O)(=O)NCCC(=O)Nc3ccc(C)cn3)cc2CC1C` (stereo not drawn) here?
Its value is inactive: -27.5%.

With `COc1ccc(CCc2nc(C)ccc2O)cc1` as the compound, how does the Potency read?
Its Potency is inconclusive [inhibitor, single point].

Which Potency does the source give for `CCC1CCCCN1S(=O)(=O)c1ccc(NC(=O)c2nc(SC)ncc2Cl)cc1` (stereo not drawn) here?
The Potency was active: 23.1 µM.

Which “activity change, negative = growth inhibition” value does the source give for `COc1ccc([N+](=O)[O-])cc1NCc1ccco1` here?
The value was inactive: -17.1%.

Which Potency does the source give for `CCOc1ccccc1OCCCC(=O)N1CCN(S(=O)(=O)c2cccc(F)c2)CC1` here?
Its Potency is inconclusive [inhibitor, single point].

For `C=CCNC(=O)N1CCC(n2nccc2NC(=O)CCCc2ccccc2)CC1`, which “activity change, negative = growth inhibition” value is on record?
The value was inactive: 23.2%.

For `Cc1ccc(N2CC(C(=O)N/N=C/c3cccc([N+](=O)[O-])c3)CC2=O)cc1` (stereo not drawn), which Potency is on record?
The Potency was inconclusive [inhibitor, single point].

With `COc1ccc(Cn2c(=S)[nH]c3cc(OC)c(OC)cc3c2=O)cc1` as the compound, how does the Potency read?
The Potency was inconclusive [inhibitor, full curve, poor fit].

Which Potency does the source give for `Cc1ccc(CS(=O)(=O)c2ccc(C(=O)N3CCCCC3)cc2[N+](=O)[O-])cc1` here?
The Potency was inconclusive [inhibitor, partial curve].

With `Cc1cccc(NC(=O)c2cc(S(=O)(=O)N3CCCCC3)ccc2Cl)n1` as the compound, how does the Potency read?
Its Potency is inconclusive [inhibitor, single point].

For `CC(C)OC(=O)CSc1nnc(-c2ccc(C(C)(C)C)cc2)n1N`, which Potency is on record?
Its Potency is inconclusive [inhibitor, single point].

For `COc1cc(OC)c(CN2CCc3c([nH]c4ccccc34)C2)cc1Br`, which Potency is on record?
Its Potency is inconclusive [inhibitor, single point].

With `CCc1ccccc1NS(=O)(=O)c1ccc(-c2coc(C)n2)cc1` as the compound, how does the Potency read?
The Potency was inconclusive [inhibitor, single point].

For `Cc1ccc(C(=O)C2CCN(CC(=O)N3CCN(c4ccc(F)cc4)CC3)CC2)cc1`, which Potency is on record?
Its Potency is active: 18.4 µM.

With `CCc1ccc(N=CC23c4ccccc4C(c4ccccc42)C2C(=O)N(c4ccc(OC)cc4)C(=O)C23)cc1` (stereo not drawn) as the compound, how does the Potency read?
The Potency was active: 18.4 µM.

For `CS/C(=N\S(=O)(=O)c1cccs1)NC(=O)CSc1nc2ccccc2s1`, which Potency is on record?
Its Potency is inconclusive [inhibitor, partial curve, poor fit].

For `Cc1oc2ncnc(N3CCCCC3)c2c1C(=O)Nc1cccc(Cl)c1C`, which Potency is on record?
Its Potency is active: 14.6 µM.

Which “activity change, negative = growth inhibition” value does the source give for `CCNc1nc(C)nc2c1oc1ccccc12` here?
Its value is inactive: -21.3%.

Which Potency does the source give for `c1ccc(C2(CN3CCNC[C@H]3Cc3cccc4ccccc34)CC2)cc1` here?
Its Potency is inconclusive [inhibitor, single point].

Which Potency does the source give for `Cc1nc2cc(-c3ccccc3)nn2c(C)c1CCC(=O)NCCc1ccccc1` here?
Its Potency is inconclusive [inhibitor, single point].

For `CCOc1cc(/C=N/NC(=O)C(N)=O)cc(Br)c1O`, which “activity change, negative = growth inhibition” value is on record?
Its value is inactive: 3.06%.

Which Potency does the source give for `FC(F)(F)c1cc(Oc2ccccc2)nc(-c2ccccn2)n1` here?
The Potency was inconclusive [inhibitor, partial curve, poor fit].

For `CCN(CC)C(=O)C1=C(C)N(CCCN2CCCC2=O)C(=O)C(CC(=O)NCc2cccs2)C1` (stereo not drawn), which “activity change, negative = growth inhibition” value is on record?
The value was inactive: -10.3%.

For `Cc1cnnn1-c1ccc(C(=O)CCl)cc1`, which Potency is on record?
The Potency was active: 2.59 µM.

For `Cc1ccc(S(=O)(=O)Nc2ccc3c(c2)C(=O)N([C@H](C)CO)C[C@@H](C)[C@@H](CN(C)C(=O)Nc2cccc4ccccc24)O3)cc1`, which Potency is on record?
The Potency was inconclusive [inhibitor, single point].

For `N#C/C(=C/c1ccc(N2CCCCC2)o1)C(=O)Nc1ccc(Cl)cc1`, which Potency is on record?
The Potency was inconclusive [inhibitor, full curve].

For `C[C@H](CO)N1C[C@H](C)[C@@H](CN(C)S(=O)(=O)c2cccs2)Oc2c(NC(=O)NC3CCCCC3)cccc2C1=O`, which Potency is on record?
The Potency was inconclusive [inhibitor, single point].

With `CC(NC(=O)c1cccc(S(=O)(=O)N(C)c2ccccc2)c1)c1cccnc1` (stereo not drawn) as the compound, how does the Potency read?
Its Potency is active: 18.4 µM.

Which Potency does the source give for `Cn1c(O)c(C(C#N)=C2N=c3ccccc3=N2)c2ccccc21` here?
The Potency was active: 11.6 µM.

For `Cc1cccc(CCNC(=O)Cn2ncc3c([nH]c4ccccc43)c2=O)c1`, which “activity change, negative = growth inhibition” value is on record?
Its value is inactive: 18.5%.

Which Potency does the source give for `Cc1nc(SCC(=O)N2CCOCC2)c2ccsc2n1` here?
Its Potency is inconclusive [inhibitor, single point].

For `COc1ccc(CC(=O)Nc2ccc(-c3nc4ccccc4s3)cc2Cl)cc1OC`, which Potency is on record?
Its Potency is inconclusive [inhibitor, single point].
